# In PubChem BioAssay AID504333 (National Center for Advancing Translational Sciences (NCATS), 2011):
# Hit rate of the full screen: of about 360,000 compounds, about 16,000 (4.4%) were called active. The shares of active, inactive and inconclusive entries below differ from those in the screen. The call rests on the fitted dose curve; in most records, active means well fitted inhibition curve with a large enough effect; inconclusive means small, poorly fitted or top-dose-only effect; inactive means no such curve, though single readings can be large or run the other way. A potency beside an inconclusive call is a rough fit, not a confirmed value.
# Target: Bromodomain adjacent to zinc finger domain protein 2B (Homo sapiens) (UniProt Q9UIF8)
# Experiment: qHTS Assay for Inhibitors of BAZ2B; further: nearly all actives have a fitted effect of over 60% in size
# Details: AlphaScreen BAZ2B-H3K14Ac peptide displacement; activity change, negative = inhibition: at 114 µM (top of the series)
# Method in brief: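 Multi-concentration screen (max 110 uM) measuring displacement of acetylated histone H3 peptide from BAZ2B by AlphaScreen, using 50 nM protein, 50 nM peptide and 10 ug/mL streptavidin donor plus Ni-chelate acceptor beads.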
# On the % scale 0 is the no-effect control and ±100 the full control effect; potency means the concentration at half of the fitted maximal effect; tags describe the fitted curve by direction and shape.
# UniProt Q9UIF8, sequence (Q9UIF8 whole entry, looked up, the tested form may be a part): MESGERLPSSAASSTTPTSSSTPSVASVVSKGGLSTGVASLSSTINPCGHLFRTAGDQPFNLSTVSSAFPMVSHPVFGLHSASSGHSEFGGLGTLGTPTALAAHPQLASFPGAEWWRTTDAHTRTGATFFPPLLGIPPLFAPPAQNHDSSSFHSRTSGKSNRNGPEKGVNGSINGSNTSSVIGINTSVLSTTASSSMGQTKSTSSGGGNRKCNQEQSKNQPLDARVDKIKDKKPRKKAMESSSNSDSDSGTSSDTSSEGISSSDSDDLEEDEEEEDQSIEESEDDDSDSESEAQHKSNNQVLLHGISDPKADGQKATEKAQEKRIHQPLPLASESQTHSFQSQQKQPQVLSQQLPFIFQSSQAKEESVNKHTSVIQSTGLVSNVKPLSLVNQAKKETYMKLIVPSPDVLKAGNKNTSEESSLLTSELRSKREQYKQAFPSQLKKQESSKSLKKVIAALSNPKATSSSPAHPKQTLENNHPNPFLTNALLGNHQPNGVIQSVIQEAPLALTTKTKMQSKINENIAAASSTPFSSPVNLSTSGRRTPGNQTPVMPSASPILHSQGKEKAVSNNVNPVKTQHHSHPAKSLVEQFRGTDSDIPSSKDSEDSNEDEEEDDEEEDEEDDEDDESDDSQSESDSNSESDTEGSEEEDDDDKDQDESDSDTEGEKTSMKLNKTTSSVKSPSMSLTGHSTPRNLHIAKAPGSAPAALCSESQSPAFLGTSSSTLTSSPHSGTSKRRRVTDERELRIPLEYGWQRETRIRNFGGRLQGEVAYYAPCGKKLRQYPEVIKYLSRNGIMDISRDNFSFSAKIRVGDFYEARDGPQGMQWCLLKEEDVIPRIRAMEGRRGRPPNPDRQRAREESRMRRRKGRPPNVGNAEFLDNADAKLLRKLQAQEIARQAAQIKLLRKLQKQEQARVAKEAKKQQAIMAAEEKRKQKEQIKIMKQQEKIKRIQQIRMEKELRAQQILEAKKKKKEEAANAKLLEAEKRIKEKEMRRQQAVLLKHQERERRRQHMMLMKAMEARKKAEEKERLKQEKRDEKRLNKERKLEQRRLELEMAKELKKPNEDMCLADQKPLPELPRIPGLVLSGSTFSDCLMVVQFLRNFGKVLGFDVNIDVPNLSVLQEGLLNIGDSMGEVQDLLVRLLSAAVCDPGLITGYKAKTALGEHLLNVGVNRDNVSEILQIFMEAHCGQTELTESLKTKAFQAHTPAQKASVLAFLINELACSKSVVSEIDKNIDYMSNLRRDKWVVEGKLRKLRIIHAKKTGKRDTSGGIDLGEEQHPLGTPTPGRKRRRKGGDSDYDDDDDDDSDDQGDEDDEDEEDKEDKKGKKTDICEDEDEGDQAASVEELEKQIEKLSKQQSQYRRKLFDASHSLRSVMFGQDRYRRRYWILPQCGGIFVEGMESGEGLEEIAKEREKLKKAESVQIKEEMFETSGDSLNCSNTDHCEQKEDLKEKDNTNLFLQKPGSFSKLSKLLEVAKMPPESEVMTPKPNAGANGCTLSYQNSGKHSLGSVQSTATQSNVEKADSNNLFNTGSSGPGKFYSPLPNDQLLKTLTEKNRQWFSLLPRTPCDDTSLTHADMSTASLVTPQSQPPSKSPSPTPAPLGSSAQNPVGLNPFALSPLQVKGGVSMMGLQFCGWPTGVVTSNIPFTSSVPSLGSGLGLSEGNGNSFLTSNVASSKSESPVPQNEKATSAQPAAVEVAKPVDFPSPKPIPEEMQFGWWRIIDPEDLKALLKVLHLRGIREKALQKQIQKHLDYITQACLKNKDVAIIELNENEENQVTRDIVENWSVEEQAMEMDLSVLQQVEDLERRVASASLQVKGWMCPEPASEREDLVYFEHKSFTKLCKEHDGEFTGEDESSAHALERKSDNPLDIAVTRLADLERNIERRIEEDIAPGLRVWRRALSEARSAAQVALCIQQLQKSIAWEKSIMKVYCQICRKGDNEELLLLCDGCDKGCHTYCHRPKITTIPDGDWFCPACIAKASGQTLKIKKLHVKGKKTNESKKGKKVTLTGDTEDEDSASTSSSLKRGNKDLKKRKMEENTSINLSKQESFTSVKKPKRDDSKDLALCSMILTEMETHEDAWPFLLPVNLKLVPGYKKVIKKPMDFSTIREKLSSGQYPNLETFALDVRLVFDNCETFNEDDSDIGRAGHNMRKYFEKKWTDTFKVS
Compound,Potency,"activity change, negative = inhibition"
COc1cccc(NC(=O)CSC2=Nc3ccccc3N=C(c3ccc(F)cc3)C2)c1,"inconclusive: 79.4 µM [inhibitor, partial curve]",
CCc1ccc(C(=O)c2cn(CC(=O)NCCc3ccc(OC)c(OC)c3)c3nc(C)ccc3c2=O)cc1,,inactive: 0.166%
O=C(c1ccc(N2CCOCC2)c([N+](=O)[O-])c1)N1CCN(Cc2ccccc2)CC1,,inactive: -28.4%
COc1ccc(OC)c(NC(=O)C2CCCN(S(=O)(=O)c3cccc4cccnc34)C2)c1 (stereo unspecified),,inactive: -21.6%
CCOCCCNC(=O)NC(C)c1c(-n2cccc2)sc2c1CCN(CC)C2 (stereo unspecified),,inactive: -12.8%
CC(=O)N1c2ccc(S(=O)(=O)N3CCCC3)cc2CC1C(=O)Nc1cc(C)cc(C)c1 (stereo unspecified),,inactive: -5.28%
Cc1cccc(Nc2nc(N)c([N+](=O)[O-])c(N3CCC(C)CC3)n2)c1,"inconclusive: 35.5 µM [inhibitor, partial curve]",
COC(=O)c1ccc(N2CCOCC2)c(NC(=O)c2cccnc2)c1,,inactive: 0.846%
COc1ccc2c(C)cc(N3CCCCCC3)nc2c1,active: 22.4 µM,
Cc1ccc(CS(=O)(=O)CCC(=O)NCc2cccs2)cc1,"inconclusive: 100 µM [inhibitor, single point]",
Clc1ccc(C(c2ccccc2)N2CCN(c3ccccn3)CC2)cc1 (stereo unspecified),,inactive: -14%
O=C(c1ccc([N+](=O)[O-])cc1)N1CCC(Cc2ccccc2)CC1,"inconclusive: 70.8 µM [inhibitor, partial curve]",
N#C/C(=C\C=C\c1ccccc1)C(=O)NCc1ccco1,"inconclusive: 79.4 µM [inhibitor, single point]",
O=C(O)c1ccc(/C=N\Nc2ccc(S(=O)(=O)N3CCOCC3)cc2[N+](=O)[O-])cc1,"inconclusive: 50.1 µM [inhibitor, partial curve]",
CC1CCCCC1NCC#CCOc1ccc(Cl)cc1 (stereo unspecified),active: 50.1 µM,
Cc1ccc(CNC(=O)C2CCCN2C(=O)Nc2ccc(F)cc2)cc1 (stereo unspecified),"inconclusive: 89.1 µM [inhibitor, single point]",
Cc1ccc(NC2=NCC(=O)N2C2CCCC2)c(C)c1,"inconclusive: 89.1 µM [inhibitor, single point]",
Cc1cccc(NC(=O)CNC(=O)c2ccc3nc[nH]c3c2)c1C,active: 50.1 µM,
CCc1nc(N)c(C#N)c(-c2ccc(OC)c(OC)c2)c1C,,inactive: 5.02%
CCc1cc(C(=O)N=Nc2c(O)[nH]c3ccc([N+](=O)[O-])cc23)c2ccccc2n1,"inconclusive: 28.2 µM [inhibitor, partial curve]",
CCOc1ccc(/C=N/NC(=O)c2cc3c(OC)cc(OC)cc3[nH]2)cc1OC,"inconclusive: 79.4 µM [inhibitor, single point]",
Cc1ccc(C(=O)Oc2csc(=S)n2C(=O)c2ccc(C)cc2)cc1,"inconclusive: 79.4 µM [inhibitor, single point]",
COc1ccc(NC(=O)c2ccco2)cc1NC(=O)COc1ccccc1[N+](=O)[O-],,inactive: 1.29%

Compound,Potency,"activity change, negative = inhibition"
CC(OC(=O)Cn1[nH]c(=O)c2ccccc2c1=O)C(=O)Nc1ccccc1[N+](=O)[O-] (stereo unspecified),,inactive: -6.42%
Cc1cc(C)c(-c2n[nH]c3c2C(c2ccccc2F)N(Cc2ccco2)C3=O)c(O)c1 (stereo unspecified),"inconclusive: 89.1 µM [inhibitor, single point]",
O=C(CC(C(=O)N1CCc2ccccc21)n1ccnc1)N1CCc2ccccc2C1 (stereo unspecified),"inconclusive: 79.4 µM [inhibitor, single point]",
COc1cc(C)c(N)cc1C(C)C,"inconclusive: 50.1 µM [inhibitor, partial curve]",
Cc1ccc(S(=O)(=O)N2CCCN(C(=O)c3cc4ccccc4[nH]3)CC2)cc1,"inconclusive: 89.1 µM [inhibitor, single point]",
Cc1c(NC(=O)C2CC=CCC2C(=O)O)c(=O)n(-c2ccccc2)n1C (stereo unspecified),active: 79.4 µM,
CCN1CCN(C(=S)NCCc2ccccc2)CC1,active: 79.4 µM,
CCN(CC)S(=O)(=O)c1cc(NC(=O)C(C)N2CCN(c3ccccn3)CC2)ccc1C (stereo unspecified),"inconclusive: 79.4 µM [inhibitor, partial curve]",
CC(=O)c1c(C)[nH]c(C(=O)Nc2cccc(C(F)(F)F)c2)c1C,"inconclusive: 70.8 µM [inhibitor, single point]",
Cc1nnc(SCC(=O)Nc2sccc2C#N)s1,"inconclusive: 79.4 µM [inhibitor, single point]",
CC(=O)N1CCN(c2ncnc3sc(-c4ccccc4)cc23)CC1,"inconclusive: 79.4 µM [inhibitor, partial curve]",
COc1ccc2[nH]c(=O)c(CN(CC3CCCO3)S(=O)(=O)c3ccccc3F)cc2c1 (stereo unspecified),,inactive: 3.8%
OC(CN1CCN(c2ccccn2)CC1)Cn1c2ccccc2c2ccccc21 (stereo unspecified),"inconclusive: 70.8 µM [inhibitor, single point]",
OC(CN1CCOCC1)Cn1c2c(c3ccccc31)CCCC2 (stereo unspecified),"inconclusive: 89.1 µM [inhibitor, single point]",
CN(CCc1ccccc1)C1CCCN(S(=O)(=O)N(C)C)C1 (stereo unspecified),,inactive: 5.74%
Fc1ccc(/C=C2\CCCC3=C2NC(=S)NC3c2ccc(F)cc2)cc1 (stereo unspecified),"inconclusive: 35.5 µM [inhibitor, partial curve]",
COc1cccc(CNC(=O)c2ccccc2NC(=O)C2=C(C)OCCS2)c1,"inconclusive: 50.1 µM [inhibitor, partial curve]",
COc1ccc(CN(C)CC(=O)Nc2ccccc2C(F)(F)F)cc1,,inactive: 8.47%
CCNC(=O)CSc1ncnc2sccc12,"inconclusive: 22.4 µM [inhibitor, partial curve]",
NC(=O)CC(NC(=O)c1cccc(Br)c1)c1ccc(N2CCN(c3ccc(F)cc3)CC2)c([N+](=O)[O-])c1 (stereo unspecified),"inconclusive: 79.4 µM [inhibitor, single point]",
COc1ccc(C)cc1NC(=O)Nc1nnc(N2CCCCC2)s1,,inactive: -10.1%
O=S(=O)(c1ccc(F)cc1)c1nc(-c2ccco2)oc1Nc1ccc(F)cc1,"inconclusive: 44.7 µM [inhibitor, partial curve]",
Cc1ccc(C=C2C(=O)c3ccccc3C2=O)o1,active: 39.8 µM,
